Source: PubChem BioAssay AID1347165 (National Center for Advancing Translational Sciences (NCATS), 2019)
Values joined by “and” are separate entries in the source; they are usually repeats but may differ in a detail not shown here. Identical values can stand only once. Among all 220,000 compounds or so, about 5,700 (2.6%) were called active. Inconclusive results, whose numbers are uncertain, are shown with a selection of clear calls. The call rests on the fitted dose curve; in most records, active means well fitted inhibition curve with a large enough effect; inconclusive means small, poorly fitted or top-dose-only effect; inactive means no such curve, though single readings can be large or run the other way. Potencies beside an inconclusive call are fits to weak or partial responses and may not hold up.

Biological target: Lysine-specific demethylase 5B (Homo sapiens) (UniProt Q9UGL1)
Sequence of UniProt Q9UGL1 (Q9UGL1 whole entry, looked up): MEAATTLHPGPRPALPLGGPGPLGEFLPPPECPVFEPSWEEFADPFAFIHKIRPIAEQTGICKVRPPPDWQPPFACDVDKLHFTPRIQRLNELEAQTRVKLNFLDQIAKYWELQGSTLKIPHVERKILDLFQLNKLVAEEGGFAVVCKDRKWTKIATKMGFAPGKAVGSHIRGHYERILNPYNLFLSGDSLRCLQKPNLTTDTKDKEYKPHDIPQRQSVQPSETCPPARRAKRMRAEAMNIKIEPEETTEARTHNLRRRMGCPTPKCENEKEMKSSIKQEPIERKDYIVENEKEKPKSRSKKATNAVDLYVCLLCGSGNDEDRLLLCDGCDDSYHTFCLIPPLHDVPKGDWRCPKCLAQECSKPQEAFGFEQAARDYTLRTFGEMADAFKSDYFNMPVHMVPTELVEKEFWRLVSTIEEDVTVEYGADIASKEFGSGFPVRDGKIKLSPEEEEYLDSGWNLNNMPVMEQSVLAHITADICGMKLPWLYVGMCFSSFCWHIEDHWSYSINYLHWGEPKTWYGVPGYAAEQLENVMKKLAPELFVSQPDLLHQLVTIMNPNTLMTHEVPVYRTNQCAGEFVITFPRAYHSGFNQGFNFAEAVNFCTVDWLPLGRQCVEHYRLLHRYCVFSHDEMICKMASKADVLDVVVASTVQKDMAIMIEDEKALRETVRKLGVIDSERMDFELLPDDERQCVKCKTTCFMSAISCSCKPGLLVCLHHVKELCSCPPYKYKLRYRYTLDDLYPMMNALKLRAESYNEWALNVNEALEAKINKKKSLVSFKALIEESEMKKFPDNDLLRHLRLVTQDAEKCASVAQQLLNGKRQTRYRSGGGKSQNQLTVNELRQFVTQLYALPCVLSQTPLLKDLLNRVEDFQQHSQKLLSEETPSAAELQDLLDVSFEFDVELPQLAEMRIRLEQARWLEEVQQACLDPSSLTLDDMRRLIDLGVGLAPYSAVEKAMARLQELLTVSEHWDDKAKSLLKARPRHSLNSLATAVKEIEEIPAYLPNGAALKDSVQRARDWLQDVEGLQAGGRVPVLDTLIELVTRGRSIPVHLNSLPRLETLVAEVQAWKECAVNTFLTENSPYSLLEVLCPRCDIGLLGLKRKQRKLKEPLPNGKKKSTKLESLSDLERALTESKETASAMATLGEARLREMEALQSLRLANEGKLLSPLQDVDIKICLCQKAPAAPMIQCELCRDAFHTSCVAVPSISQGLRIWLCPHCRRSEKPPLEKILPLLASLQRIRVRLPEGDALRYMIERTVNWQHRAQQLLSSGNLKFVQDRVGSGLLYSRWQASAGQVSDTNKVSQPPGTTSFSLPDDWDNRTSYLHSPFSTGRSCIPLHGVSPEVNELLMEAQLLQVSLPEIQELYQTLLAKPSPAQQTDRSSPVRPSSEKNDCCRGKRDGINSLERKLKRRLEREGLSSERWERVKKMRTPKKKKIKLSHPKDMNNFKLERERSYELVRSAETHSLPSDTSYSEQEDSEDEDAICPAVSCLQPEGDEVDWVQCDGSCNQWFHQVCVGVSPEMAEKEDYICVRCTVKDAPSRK
Experiment: Primary screen for KDM5B Histone Demethylases FDH-coupled qHTS; further: nearly all actives have a fitted effect of over 70% in size
Settings: FDH-coupled NADH fluorescence (FDH is formaldehyde dehydrogenase); series mostly up to 57.7 µM
In short: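 Here, H3K4me3 peptide (12.5 µM in substrate mix) is demethylated by KDM5BΔAP, 200 nM final, after 10 min compound exposure. Formaldehyde product is coupled through FDH (0.25 U/mL in mix) to NADH fluorescence; 30-min ΔRFU feeds dose-response curves.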
Potency means the concentration at half of the fitted maximal effect; tags describe the fitted curve by direction and shape.

Question: Which Potency does the source give for `O=c1[nH]c(C2CCCN(Cc3cccc(-c4cccs4)c3)C2)nc2ccc(F)cc12` (centres undefined) here?
Answer: Its Potency is inconclusive: 56.2 µM [inhibitor, partial curve, poor fit] and inconclusive: 31.6 µM [inhibitor, single point].

Question: How did the Potency turn out when `O=C(O)CCC(=O)N1C[C@@H]2OCC(=O)N(Cc3ccccc3)[C@@H]2C1` was run?
Answer: Its Potency is inconclusive: 39.8 µM [inhibitor, single point].

Question: How did the Potency turn out when `O=C1CCCN1c1ccc(Cn2ccn3nc(-c4ccc(F)cc4)c(CO)c3c2=O)cc1` was run?
Answer: The Potency was inconclusive: 22.4 µM [inhibitor, single point].

Question: Which Potency does the source give for `COc1ccc(CN2CC(c3ncc4c(-c5ccccc5)nccn34)C2)cc1O` here?
Answer: Its Potency is inconclusive: 22.4 µM [inhibitor, single point].

Question: Which Potency does the source give for `O=C(Nc1ccccc1F)N1CC2CCC(C1)N2Cc1cccc(-c2cccs2)c1` here?
Answer: The Potency was inconclusive: 56.2 µM [inhibitor, partial curve, poor fit].

Question: `CC(OC(=O)Cn1cnc2c1c(=O)n(C)c(=O)n2C)C(=O)Nc1cccc(C#N)c1` (centres undefined) was tested. Which Potency did it give?
Answer: Its Potency is “inactive”.

Question: Which Potency does the source give for `CCc1nc2ccccc2n1CCCCOc1cccc(C)c1` here?
Answer: The Potency was inconclusive: 35.5 µM [inhibitor, single point].

Question: For `O=C(NCc1ccccn1)C1CN(S(=O)(=O)c2cccnc2)CC12CCCCC2` (centres undefined), which Potency is on record?
Answer: Its Potency is “inactive”.

Question: With `COc1cc(OC)cc(C(=O)NCC2CCCN(Cc3cc4ccccc4o3)C2)c1` (centres undefined) as the compound, how does the Potency read?
Answer: Its Potency is inconclusive: 35.5 µM [inhibitor, partial curve, poor fit].

Question: With `Cc1nn(-c2ccccc2)nc1C(=O)c1c(C)[nH]n(-c2ccccc2)c1=O` as the compound, how does the Potency read?
Answer: The Potency was inconclusive: 39.8 µM [inhibitor, single point].

Question: How did the Potency turn out when `CCCCNc1nc2c(s1)C[C@]1(C)CC[C@@H]3[C@H](OC(=O)[C@H]3C)[C@H]1[C@@H]2C` was run?
Answer: The Potency was inconclusive: 28.2 µM [inhibitor, partial curve].

Question: For `CN(/C=C/C(=O)C(F)(F)F)c1ccccc1C(=O)O`, which Potency is on record?
Answer: Its Potency is inconclusive: 28.2 µM [inhibitor, partial curve, poor fit].

Question: Which Potency does the source give for `Cc1nnsc1C(=O)Oc1ccc(C#N)cc1` here?
Answer: Its Potency is inconclusive: 31.6 µM [inhibitor, single point].

Question: Which Potency does the source give for `CCCN1CCN(c2nnc(-n3cccc3CN3CCN(Cc4ccccc4)CC3)s2)CC1` here?
Answer: The Potency was “inactive”.

Question: Which Potency does the source give for `CCS(=O)(=O)CC(=O)O` here?
Answer: The Potency was “inactive”.

Question: With `N#CC(C#N)=c1[nH]c2ccccc2/c1=C\c1ccccc1` as the compound, how does the Potency read?
Answer: Its Potency is inconclusive: 39.8 µM [inhibitor, single point].

Question: Which Potency does the source give for `COC1CCN(C(=O)C2(C)CN(Cc3ccccc3)Cc3ccc(Nc4ccccc4)nc32)CC1` (centres undefined) here?
Answer: Its Potency is active: 31.6 µM.

Question: How did the Potency turn out when `O=C(Cn1nnc(-c2ccc(F)cc2)n1)N1N=C(c2cccs2)CC1c1cccs1` (centres undefined) was run?
Answer: The Potency was inconclusive: 12.6 µM [inhibitor, partial curve, poor fit].

Question: How did the Potency turn out when `Cc1cc2c(-c3ccccc3C)nc(-c3c(C)noc3C)cc2[nH]1` was run?
Answer: The Potency was active: 31.6 µM.

Question: With `Clc1ccc(CN2CCc3nc(N4CCN(c5ccccn5)CC4)ncc3C2)cc1` as the compound, how does the Potency read?
Answer: Its Potency is inconclusive: 35.5 µM [inhibitor, partial curve, poor fit].

Question: Which Potency does the source give for `Cc1c(O)ccc2c(CC(=O)N[C@@H](Cc3c[nH]c4ccccc34)C(=O)O)cc(=O)oc12` here?
Answer: The Potency was inconclusive: 28.2 µM [inhibitor, partial curve, poor fit].

Question: With `Cc1ccc(-c2ccnc(N(C)CC3CC(=O)N(C(C)(C)C)C3)n2)c(C)n1` (centres undefined) as the compound, how does the Potency read?
Answer: The Potency was inconclusive: 28.2 µM [inhibitor, partial curve, poor fit].

Question: How did the Potency turn out when `COCCn1c(C)c(C)c(S(=O)(=O)c2ccccc2)c1NC(=O)C(C)C` was run?
Answer: The Potency was “inactive”.

Question: With `COc1ccc(-c2cc(-c3nc(-c4ccc(Br)cc4)no3)[nH]n2)c(OC)c1` as the compound, how does the Potency read?
Answer: The Potency was inconclusive: 39.8 µM [inhibitor, single point].

Question: `Cc1cccc(/C=C/C(=O)c2cc3ccccc3o2)c1` was tested. Which Potency did it give?
Answer: The Potency was inconclusive: 35.5 µM [inhibitor, single point].

Question: Which Potency does the source give for `COc1ccc(OC)c(C2=NOC(C(=O)Nc3ccc(OC(F)(F)F)cc3)C2)c1` (centres undefined) here?
Answer: Its Potency is inconclusive: 14.1 µM [inhibitor, partial curve, poor fit].

Question: With `CCN(CC)CCNC(=O)c1ccc(-c2nc(CN3CCc4ccccc43)c(C)o2)cc1` as the compound, how does the Potency read?
Answer: The Potency was inconclusive: 39.8 µM [inhibitor, single point].

Question: How did the Potency turn out when `NC(=O)COc1ccc2oc(-c3ccccc3)cc(=O)c2c1` was run?
Answer: The Potency was inconclusive: 28.2 µM [inhibitor, partial curve, poor fit].

Question: How did the Potency turn out when `CCOC(=O)c1cccc(NC(=O)CSc2cc(=O)n(C)c3ccccc23)c1` was run?
Answer: Its Potency is inconclusive: 25.1 µM [inhibitor, partial curve, poor fit].

Question: How did the Potency turn out when `CC(C)CNC(=O)COC(=O)c1ccc(Br)cc1` was run?
Answer: Its Potency is “inactive”.

Question: Which Potency does the source give for `CC(C)NC(=O)N[C@H]1C[C@@H](c2nc(-c3ccc4c(c3)OCO4)no2)N(C)C1` here?
Answer: Its Potency is inconclusive: 20 µM [inhibitor, partial curve, poor fit].

Question: With `COc1cccc(CNC(=O)C2CCN(Cc3cc4ccccc4n3Cc3ccccc3)CC2)c1OC` as the compound, how does the Potency read?
Answer: The Potency was inconclusive: 28.2 µM [inhibitor, single point].

Question: How did the Potency turn out when `COC(=O)C1=C(C)N=C2SC=C(CC(=O)NCc3ccccc3F)N2C1c1cccc(OC)c1` (centres undefined) was run?
Answer: Its Potency is inconclusive: 35.5 µM [inhibitor, single point].

Question: Which Potency does the source give for `Cc1ccc(CN2CC[C@H](c3nnc(-c4ccccc4)o3)C2)cc1` here?
Answer: Its Potency is inconclusive: 15.8 µM [inhibitor, partial curve].

Question: `COc1ccc(S(=O)(=O)Nc2cc(-c3cn4ccc(C)cc4n3)ccc2C)cc1OC` was tested. Which Potency did it give?
Answer: Its Potency is inconclusive: 22.4 µM [inhibitor, partial curve, poor fit].

Question: How did the Potency turn out when `Cc1nnc2c3ccccc3nc(Nc3ccccc3C(=O)O)n12` was run?
Answer: The Potency was inconclusive: 4.47 µM [inhibitor, full curve, poor fit].

Question: Which Potency does the source give for `Cc1ccc(NCc2cc3cc4c(cc3n(CC(=O)Nc3ccc(F)cc3F)c2=O)OCCO4)cc1` here?
Answer: Its Potency is inconclusive: 3.16 µM [inhibitor, full curve, poor fit].

Question: `Cc1cc(C(=O)OC(C)C(=O)Nc2ccccc2F)c(C)o1` (centres undefined) was tested. Which Potency did it give?
Answer: Its Potency is “inactive”.

Question: For `O=C1NCCCCCCN(Cc2ccncc2)[C@@H]2CN(S(=O)(=O)c3ccccc3)CC[C@@H]12`, which Potency is on record?
Answer: Its Potency is inconclusive: 22.4 µM [inhibitor, partial curve, poor fit].
